The values below come from paper PMC4336329 (PLoS ONE, 2015).

Each structure is given as a SMILES string. Out of some 310,000 compounds screened, about 14,000 (4.5%) showed an effect of 50% or more. The effect is printed as a negative number. Some of the results follow.
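Also: peak tail current of the secondary pulse compared with the same well before compound.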

The target of the experiment is human ether-à-go-go-related gene (hERG) potassium channel (human, UniProt Q12809). As to the kind of experiment: primary screen, population patch clamp on CHO cells stably expressing hERG.
Chain of human ether-à-go-go-related gene (hERG) potassium channel (Q12809 whole entry, looked up): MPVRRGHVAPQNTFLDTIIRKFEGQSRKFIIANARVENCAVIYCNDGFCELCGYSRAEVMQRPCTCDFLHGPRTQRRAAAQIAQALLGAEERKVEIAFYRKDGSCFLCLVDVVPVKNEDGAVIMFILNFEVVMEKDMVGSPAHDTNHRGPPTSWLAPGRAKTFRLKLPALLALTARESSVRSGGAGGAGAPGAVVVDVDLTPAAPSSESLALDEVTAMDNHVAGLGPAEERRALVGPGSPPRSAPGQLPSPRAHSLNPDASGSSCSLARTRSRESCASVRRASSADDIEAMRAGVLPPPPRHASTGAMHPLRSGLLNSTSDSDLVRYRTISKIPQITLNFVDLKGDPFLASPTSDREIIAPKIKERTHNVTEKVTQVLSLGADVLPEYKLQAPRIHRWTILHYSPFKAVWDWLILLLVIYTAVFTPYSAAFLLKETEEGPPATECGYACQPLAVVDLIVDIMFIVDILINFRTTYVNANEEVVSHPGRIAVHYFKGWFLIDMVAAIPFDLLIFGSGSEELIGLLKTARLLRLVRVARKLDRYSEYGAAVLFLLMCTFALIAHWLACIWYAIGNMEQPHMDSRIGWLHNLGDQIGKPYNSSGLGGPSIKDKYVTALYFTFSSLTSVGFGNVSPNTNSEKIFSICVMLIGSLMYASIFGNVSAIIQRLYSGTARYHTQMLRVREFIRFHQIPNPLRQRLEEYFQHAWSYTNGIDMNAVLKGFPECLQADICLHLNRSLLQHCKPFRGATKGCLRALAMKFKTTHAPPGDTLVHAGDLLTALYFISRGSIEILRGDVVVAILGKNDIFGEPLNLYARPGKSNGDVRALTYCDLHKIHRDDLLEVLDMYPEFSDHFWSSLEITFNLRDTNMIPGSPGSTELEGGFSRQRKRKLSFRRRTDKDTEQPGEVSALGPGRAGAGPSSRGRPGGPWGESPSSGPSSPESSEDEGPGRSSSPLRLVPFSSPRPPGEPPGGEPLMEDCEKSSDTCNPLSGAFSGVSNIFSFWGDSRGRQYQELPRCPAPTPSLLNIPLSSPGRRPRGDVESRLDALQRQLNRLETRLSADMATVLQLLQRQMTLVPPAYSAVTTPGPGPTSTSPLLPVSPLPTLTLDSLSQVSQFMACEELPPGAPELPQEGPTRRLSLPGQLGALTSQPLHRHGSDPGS
For the molecule `CN(C)S(=O)(=O)N(CC(=O)N1CCN(c2ccccc2F)CC1)c1ccccc1`, the “hERG current change (%, negative = inhibition) at 10uM” value is 2.46%.
With `Fc1ccc(CSc2nnc(-c3ccncc3)o2)cc1`, the “hERG current change (%, negative = inhibition) at 10uM” value was 13.7%.
For the molecule `CC(=O)c1ccc2oc3ccccc3c(=O)c2c1`, the “hERG current change (%, negative = inhibition) at 10uM” value is recorded as 7.46%.
Regarding `O=C(N/N=C/c1ccncc1)c1cccc(S(=O)(=O)Nc2ccc(Cl)cc2)c1`, the “hERG current change (%, negative = inhibition) at 10uM” value is on record as -0.329%.
In the case of `Cc1ccc(OCCNC(=O)CCc2nc3sc4c(c3c(=O)[nH]2)CCCC4)cc1`, the “hERG current change (%, negative = inhibition) at 10uM” value is given as 14%.
In the case of `C/C=C/c1ccc(OCC(=O)Nc2ccc(OC)c(OC)c2)c(OC)c1`, the “hERG current change (%, negative = inhibition) at 10uM” value worked out at 19.8%.
Next, `O=S(=O)(c1ccccc1Cl)N1CCC(O)(c2ccc3c(c2)OCO3)CC1`: -24.8%.
To `Cc1ccc(S(=O)(=O)c2c[nH]c3ccc(C)cc3c2=O)cc1` belongs 14.5%; to `COc1ccc(N(CC(=O)NCCSC2CCCCC2)S(=O)(=O)c2ccc(C)cc2)cc1`, 16.7%; to `CC(=S)/C=C1\Sc2ccccc2N1C`, 7.05%.
`COC(=O)Cn1nc(-c2ccc(C)cc2)c2ccccc2c1=O`: the “hERG current change (%, negative = inhibition) at 10uM” value was determined as 7.66%.
To `COc1ccc(CCNC(=O)CCc2cn(C)c3ccccc23)c(OC)c1OC` belongs -2.11%; to `CC1Cc2ccccc2N1C(=O)c1ccc2snnc2c1` (stereo not drawn), -17%.
Next, `COc1cccc(-c2nc(CS(=O)(=O)CC(=O)NCc3ccccc3OC)c(C)o2)c1`: 1.7%; `CC(C)n1cnnc1SCC(=O)NC(=O)c1ccccc1`: -1.1%; `Cn1nc(C(=O)N2CCN(c3ccc([N+](=O)[O-])cc3)CC2)c2c1-c1ccccc1S(=O)(=O)C2`: -31.4%.
As for `Cc1cc(C=C(C#N)C#N)c(C)n1-c1ccccc1`, the “hERG current change (%, negative = inhibition) at 10uM” value is listed as 2.01%.
To `O=C(Nc1ccc(S(=O)(=O)N2CCOCC2)cc1)c1ccc(F)cc1` belongs -6.51%; to `N#CCSc1nnc(-c2ccccc2)c(-c2ccccc2)n1`, -11.4%; to `COc1cccc(CNCc2cccnc2)c1OCc1ccccc1.Cl`, 19.3%.
To `O=C(O)Cc1ccc(NC(=O)Nc2ccc3c(c2)OCO3)cc1` belongs 18.5%.
In the case of `Cc1ccc(S(=O)(=O)CCC(=O)Nc2ccc(F)cc2)cc1`, the “hERG current change (%, negative = inhibition) at 10uM” value was 2.99%.
For `COc1cc(C)c(C)cc1S(=O)(=O)N1CCN(Cc2ccc3c(c2)OCO3)CC1`, the “hERG current change (%, negative = inhibition) at 10uM” value is on record as -6.56%.
With `CC(=O)N1CCN(CCN=CC2=C(O)CC(c3ccco3)CC2=O)CC1` (stereo not drawn), the “hERG current change (%, negative = inhibition) at 10uM” value came to 1.17%.
Regarding `Cc1ccc2c(c1)N(C)/C(=C/c1cccc[n+]1CCO)S2.[I-]`, the “hERG current change (%, negative = inhibition) at 10uM” value is recorded as -9.09%.
Next, `CN(C(=O)c1ccc(=O)[nH]c1)C1(C(=O)NC2CCCCC2)CCCCC1`: 11.4%.
With `Cc1ccc(OCC(=O)c2ccc(Cl)s2)c([N+](=O)[O-])n1`, the “hERG current change (%, negative = inhibition) at 10uM” value stood at 2.66%.
To `CCC(=O)Nc1nnc(SCC(=O)N2c3ccccc3CC2C)s1` (stereo not drawn) belongs 5.26%; to `CCC(C(=O)OCC(=O)Nc1c(C)n(C)n(-c2ccccc2)c1=O)c1ccccc1` (stereo not drawn), -6.14%; to `COCC(=O)N(C)C1(c2nnnn2CCOC(=O)Nc2ccc(Cl)cc2)CCCCC1`, 12.1%.
To `CCOc1ccc(C(C)NC(=O)c2ccccc2F)cc1` (stereo not drawn) belongs 7.87%; to `COCc1nnc(NS(=O)(=O)c2ccc(F)cc2)s1`, 0.955%.
Next, `CCCC1=NN2C(=N)/C(=C\c3ccc(OCCOc4ccc(NC(C)=O)cc4)c(OC)c3)C(=O)N=C2S1`: 10.8%; `CC(C)CN(CC(C)C)C1=N/C(=C\c2ccco2)C(=O)N1c1ccccc1`: 17.7%; `Cc1cc[n+](CC(=O)c2ccc3c(c2)OCCO3)cc1.[Br-]`: -22.2%.
Take `CC(=O)NNc1nc2ccccc2s1`: the “hERG current change (%, negative = inhibition) at 10uM” value was -7.64%.
For `CS(=O)(=O)c1ccc(Cl)c(S(=O)(=O)NCc2ccccc2)c1`, the “hERG current change (%, negative = inhibition) at 10uM” value was determined as 11.9%.
To `Cc1ccc(CSc2nnc(NC(=O)C3=COCCO3)s2)cc1` belongs -0.208%.
To `Cc1nnc(NC(=O)c2cccc(S(=O)(=O)N3CCN(C)CC3)c2)s1` belongs 5.24%; to `Brc1ccc(NCc2nnc3n2CCCCC3)cc1`, -18.7%; to `CCOc1ccc2nc(N=NC3=C(O)CC(C)(C)CC3=O)sc2c1`, 1.04%.
For `CC(C)Oc1ccc(C(=O)NCCCNC(=O)c2cccnc2)cc1`, the “hERG current change (%, negative = inhibition) at 10uM” value was -4.05%.
Next, `COc1ccc(NC(=O)CCCNC(=O)Cn2cnc3sc4c(c3c2=O)CCCC4)cc1OC`: 22.1%; `COc1ccc(NC(=O)c2nc[nH]c2C(=O)NCc2ccccc2)cc1`: 16.7%; `COc1cc(C=O)ccc1OCC(=O)N1CCCC1`: 18.9%.
